± gives the uncertainty stated by the source. Shown are siRNA guide strands that differ only in the seed, positions 2 to 7.
Key:
H460 = test: cell viability relative to lipid-only control; higher = less toxic; details: concentration: 10 nM; 96 h; Homo sapiens
Protocol: (§1)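 Arrayed screen of 4096 siRNA duplexes, each carrying one of all possible 6mer seeds at guide-strand positions 2-7 in a fixed neutral 19mer scaffold (constant flanks: U at position 1, then ACAUGUAAACCA, plus a 3' AA overhang). The passenger strand is 2'-O-methylated at positions 1-2 so only the guide strand loads into RISC. Duplexes were reverse-transfected at 10 nM with RNAiMAX in triplicate in 384-well plates; viability was read by CellTiter-Glo ATP content 96 h after transfection. Values are % viability normalised to lipid-only wells (HeyA8, H460, M565) or to siNT1 (3LL).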

M565 = test: as above; details: concentration: 10 nM; 96 h; Mus musculus
Protocol: as §1

HeyA8 = test: as above; details: concentration: 10 nM; 96 h; Homo sapiens
Protocol: as §1

3LL = test: cell viability relative to siNT1 control; HeyA8 human ovarian and H460 human lung cancer; M565 mouse liver and 3LL mouse lung cancer; siNT1 is a non-toxic control siRNA; higher = less toxic; details: concentration: 10 nM; 96 h; Mus musculus
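Throughout, for cell viability relative to lipid-only control: reverse lipid transfection in 384-well plates, in triplicate, of duplexes on a non-toxic 19mer backbone with passenger strand 2′-O-methylated at positions 1 and 2, luminescence viability read-out.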
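Throughout, for cell viability relative to siNT1 control: Luminescence-based viability of cells reverse transfected in 384-well plates with lipid-complexed siRNAs built on a non-toxic 19mer backbone whose passenger strand carries 2′-O-methyl groups at positions 1 and 2, triplicates.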

UCAAGGAACAUGUAAACCAAA
cell viability (H460): 41.8 ± 1.5%
cell viability (M565): 50.7 ± 8.2%
cell viability (HeyA8): 87.3 ± 10%
cell viability (3LL): 89.9 ± 21%

UCAAGGCACAUGUAAACCAAA
cell viability (H460): 27.9 ± 4.2%
cell viability (M565): 3.51 ± 1.9%
cell viability (HeyA8): 13.7 ± 1.5%
cell viability (3LL): 14.5 ± 0.77%

UCAAGGGACAUGUAAACCAAA
cell viability (H460): 42.9 ± 0.72%
cell viability (M565): 46.5 ± 7.8%
cell viability (HeyA8): 60.3 ± 7.3%
cell viability (3LL): 76 ± 21%

UCAAGGUACAUGUAAACCAAA
cell viability (H460): 38.8 ± 1.7%
cell viability (M565): 13.9 ± 4.6%
cell viability (HeyA8): 55.4 ± 4.5%
cell viability (3LL): 37.1 ± 11%

UCAAGUAACAUGUAAACCAAA
cell viability (H460): 69.2 ± 5.5%
cell viability (M565): 58.7 ± 2.6%
cell viability (HeyA8): 84.8 ± 4.7%
cell viability (3LL): 97.7 ± 13%

UCAAGUCACAUGUAAACCAAA
cell viability (H460): 55.7 ± 5.9%
cell viability (M565): 20.6 ± 0.5%
cell viability (HeyA8): 55.6 ± 10%
cell viability (3LL): 48.4 ± 9.8%

UCAAGUGACAUGUAAACCAAA
cell viability (H460): 68.3 ± 9.1%
cell viability (M565): 66.6 ± 13%
cell viability (HeyA8): 79.7 ± 5.9%
cell viability (3LL): 84.3 ± 16%

UCAAGUUACAUGUAAACCAAA
cell viability (H460): 67.4 ± 4.8%
cell viability (M565): 21.6 ± 3.4%
cell viability (HeyA8): 65.8 ± 4.6%
cell viability (3LL): 65.5 ± 4.6%

UCAAUAAACAUGUAAACCAAA
cell viability (H460): 55.8 ± 2.9%
cell viability (M565): 78.2 ± 12%
cell viability (HeyA8): 84.3 ± 8.4%
cell viability (3LL): 88.5 ± 11%

UCAAUACACAUGUAAACCAAA
cell viability (H460): 57.2 ± 7.8%
cell viability (M565): 46.7 ± 9.7%
cell viability (HeyA8): 62.9 ± 6.2%
cell viability (3LL): 88.7 ± 19%

UCAAUAGACAUGUAAACCAAA
cell viability (H460): 54.1 ± 3.8%
cell viability (M565): 65 ± 7.3%
cell viability (HeyA8): 85.6 ± 6.5%
cell viability (3LL): 94.1 ± 21%

UCAAUAUACAUGUAAACCAAA
cell viability (H460): 70.2 ± 18%
cell viability (M565): 73.8 ± 12%
cell viability (HeyA8): 76.4 ± 14%
cell viability (3LL): 85.7 ± 11%

UCAAUCAACAUGUAAACCAAA
cell viability (H460): 56.5 ± 3.2%
cell viability (M565): 78.5 ± 15%
cell viability (HeyA8): 82.7 ± 12%
cell viability (3LL): 89.2 ± 17%

UCAAUCCACAUGUAAACCAAA
cell viability (H460): 50.7 ± 5.1%
cell viability (M565): 50.4 ± 1.8%
cell viability (HeyA8): 54.5 ± 5.6%
cell viability (3LL): 75.4 ± 11%

UCAAUCGACAUGUAAACCAAA
cell viability (H460): 66.2 ± 4.7%
cell viability (M565): 76 ± 6.4%
cell viability (HeyA8): 84.5 ± 15%
cell viability (3LL): 97.7 ± 15%

UCAAUCUACAUGUAAACCAAA
cell viability (H460): 55.3 ± 7.3%
cell viability (M565): 83.2 ± 8.2%
cell viability (HeyA8): 69.5 ± 7.9%
cell viability (3LL): 94.5 ± 14%

UCAAUGAACAUGUAAACCAAA
cell viability (H460): 62.2 ± 5.1%
cell viability (M565): 71.9 ± 10%
cell viability (HeyA8): 85.4 ± 5.2%
cell viability (3LL): 87 ± 23%

UCAAUGCACAUGUAAACCAAA
cell viability (H460): 48.4 ± 4.7%
cell viability (M565): 9.04 ± 1.4%
cell viability (HeyA8): 26.4 ± 3%
cell viability (3LL): 21.9 ± 6.5%

UCAAUGGACAUGUAAACCAAA
cell viability (H460): 50.9 ± 0.76%
cell viability (M565): 25.1 ± 2.6%
cell viability (HeyA8): 44.6 ± 7.8%
cell viability (3LL): 56 ± 11%

UCAAUGUACAUGUAAACCAAA
cell viability (H460): 64.9 ± 2.2%
cell viability (M565): 43.6 ± 6.6%
cell viability (HeyA8): 62.6 ± 6.1%
cell viability (3LL): 75.5 ± 19%

UCAAUUAACAUGUAAACCAAA
cell viability (H460): 67.6 ± 16%
cell viability (M565): 69.9 ± 12%
cell viability (HeyA8): 87.1 ± 1.1%
cell viability (3LL): 97.9 ± 8.3%

UCAAUUCACAUGUAAACCAAA
cell viability (H460): 60.7 ± 6.9%
cell viability (M565): 59.8 ± 8.9%
cell viability (HeyA8): 63 ± 4.4%
cell viability (3LL): 86.7 ± 16%

UCAAUUGACAUGUAAACCAAA
cell viability (H460): 76.3 ± 15%
cell viability (M565): 79.6 ± 12%
cell viability (HeyA8): 91.8 ± 7.3%
cell viability (3LL): 100 ± 24%

UCAAUUUACAUGUAAACCAAA
cell viability (H460): 59.9 ± 0.61%
cell viability (M565): 72.6 ± 5.3%
cell viability (HeyA8): 85.2 ± 4.2%
cell viability (3LL): 90.8 ± 12%

UCACAAAACAUGUAAACCAAA
cell viability (H460): 28.2 ± 2.5%
cell viability (M565): 81.4 ± 11%
cell viability (HeyA8): 90 ± 3.3%
cell viability (3LL): 101 ± 14%

UCACAACACAUGUAAACCAAA
cell viability (H460): 23.8 ± 1.1%
cell viability (M565): 65.4 ± 7.3%
cell viability (HeyA8): 74.5 ± 2.9%
cell viability (3LL): 88.7 ± 17%

UCACAAGACAUGUAAACCAAA
cell viability (H460): 35.8 ± 5.3%
cell viability (M565): 60.9 ± 8.2%
cell viability (HeyA8): 86.3 ± 11%
cell viability (3LL): 98.3 ± 14%

UCACAAUACAUGUAAACCAAA
cell viability (H460): 34.9 ± 5.6%
cell viability (M565): 73.3 ± 13%
cell viability (HeyA8): 87.3 ± 5.1%
cell viability (3LL): 89.7 ± 14%

UCACACAACAUGUAAACCAAA
cell viability (H460): 30.1 ± 6.9%
cell viability (M565): 62.4 ± 14%
cell viability (HeyA8): 89.8 ± 12%
cell viability (3LL): 99.9 ± 16%

UCACACCACAUGUAAACCAAA
cell viability (H460): 15.4 ± 1.1%
cell viability (M565): 27.2 ± 1.9%
cell viability (HeyA8): 37.1 ± 3.5%
cell viability (3LL): 38.2 ± 7.9%

UCACACGACAUGUAAACCAAA
cell viability (H460): 23.2 ± 4.1%
cell viability (M565): 63.5 ± 7.9%
cell viability (HeyA8): 75.2 ± 1.3%
cell viability (3LL): 92.8 ± 10%

UCACACUACAUGUAAACCAAA
cell viability (H460): 15.3 ± 0.53%
cell viability (M565): 52.6 ± 2%
cell viability (HeyA8): 68.2 ± 5.8%
cell viability (3LL): 78.5 ± 16%

UCACAGAACAUGUAAACCAAA
cell viability (H460): 17.4 ± 3.3%
cell viability (M565): 48.2 ± 7.9%
cell viability (HeyA8): 87.7 ± 4%
cell viability (3LL): 91.8 ± 14%

UCACAGCACAUGUAAACCAAA
cell viability (H460): 18.2 ± 1.2%
cell viability (M565): 41.4 ± 3.8%
cell viability (HeyA8): 23.4 ± 2.7%
cell viability (3LL): 48.3 ± 16%

UCACAGGACAUGUAAACCAAA
cell viability (H460): 16.4 ± 2%
cell viability (M565): 38.1 ± 5.7%
cell viability (HeyA8): 78.1 ± 4.2%
cell viability (3LL): 38.9 ± 5.8%

UCACAGUACAUGUAAACCAAA
cell viability (H460): 24.2 ± 2.2%
cell viability (M565): 35.6 ± 3.7%
cell viability (HeyA8): 85.2 ± 4.3%
cell viability (3LL): 63.1 ± 16%

UCACAUAACAUGUAAACCAAA
cell viability (H460): 30.5 ± 3.8%
cell viability (M565): 74.4 ± 1.4%
cell viability (HeyA8): 89 ± 4.2%
cell viability (3LL): 95.8 ± 12%

UCACAUCACAUGUAAACCAAA
cell viability (H460): 17.1 ± 2%
cell viability (M565): 40.7 ± 5.3%
cell viability (HeyA8): 79.7 ± 4.7%
cell viability (3LL): 55.7 ± 11%

UCACAUGACAUGUAAACCAAA
cell viability (H460): 21.1 ± 0.85%
cell viability (M565): 56.3 ± 2.6%
cell viability (HeyA8): 92.8 ± 3.9%
cell viability (3LL): 94.1 ± 12%

UCACAUUACAUGUAAACCAAA
cell viability (H460): 26.7 ± 1.4%
cell viability (M565): 83.1 ± 16%
cell viability (HeyA8): 78.2 ± 1%
cell viability (3LL): 91.8 ± 16%

UCACCAAACAUGUAAACCAAA
cell viability (H460): 40 ± 2.2%
cell viability (M565): 60.2 ± 4.7%
cell viability (HeyA8): 90.1 ± 6.5%
cell viability (3LL): 91.4 ± 16%

UCACCACACAUGUAAACCAAA
cell viability (H460): 54 ± 0.73%
cell viability (M565): 15.6 ± 4.1%
cell viability (HeyA8): 59.5 ± 4.7%
cell viability (3LL): 68.4 ± 17%

UCACCAGACAUGUAAACCAAA
cell viability (H460): 39.8 ± 2.7%
cell viability (M565): 49.4 ± 4.7%
cell viability (HeyA8): 83.5 ± 11%
cell viability (3LL): 82.5 ± 14%

UCACCAUACAUGUAAACCAAA
cell viability (H460): 45 ± 3.1%
cell viability (M565): 49.6 ± 10%
cell viability (HeyA8): 81.7 ± 7%
cell viability (3LL): 86.1 ± 15%

UCACCCAACAUGUAAACCAAA
cell viability (H460): 39 ± 1.2%
cell viability (M565): 50.8 ± 5.2%
cell viability (HeyA8): 71 ± 1.9%
cell viability (3LL): 76 ± 16%

UCACCCCACAUGUAAACCAAA
cell viability (H460): 20.6 ± 1.6%
cell viability (M565): 44.9 ± 6.8%
cell viability (HeyA8): 26.9 ± 1.2%
cell viability (3LL): 15.3 ± 3.3%

UCACCCGACAUGUAAACCAAA
cell viability (H460): 40.3 ± 5.7%
cell viability (M565): 63.2 ± 3.9%
cell viability (HeyA8): 72 ± 1%
cell viability (3LL): 87 ± 18%

UCACCCUACAUGUAAACCAAA
cell viability (H460): 28.9 ± 1.6%
cell viability (M565): 61.5 ± 14%
cell viability (HeyA8): 65.8 ± 10%
cell viability (3LL): 48.1 ± 6%

UCACCGAACAUGUAAACCAAA
cell viability (H460): 56.1 ± 8.2%
cell viability (M565): 58.6 ± 10%
cell viability (HeyA8): 83.6 ± 9.4%
cell viability (3LL): 93.6 ± 12%

UCACCGCACAUGUAAACCAAA
cell viability (H460): 38.8 ± 3.7%
cell viability (M565): 30.4 ± 3.8%
cell viability (HeyA8): 53.8 ± 2.7%
cell viability (3LL): 57.2 ± 19%

UCACCGGACAUGUAAACCAAA
cell viability (H460): 40.2 ± 1.6%
cell viability (M565): 66.6 ± 14%
cell viability (HeyA8): 65.2 ± 1.9%
cell viability (3LL): 85.9 ± 17%

UCACCGUACAUGUAAACCAAA
cell viability (H460): 38.05 ± 0.049%
cell viability (M565): 32.2 ± 2.1%
cell viability (HeyA8): 66.9 ± 7.9%
cell viability (3LL): 77 ± 15%

UCACCUAACAUGUAAACCAAA
cell viability (H460): 61.2 ± 8.1%
cell viability (M565): 78.3 ± 6.3%
cell viability (HeyA8): 86.1 ± 6.3%
cell viability (3LL): 95.7 ± 11%

UCACCUCACAUGUAAACCAAA
cell viability (H460): 32.4 ± 7.1%
cell viability (M565): 60.3 ± 9.2%
cell viability (HeyA8): 57.9 ± 1.4%
cell viability (3LL): 74.9 ± 19%

UCACCUGACAUGUAAACCAAA
cell viability (H460): 49.1 ± 1.5%
cell viability (M565): 77.5 ± 4.5%
cell viability (HeyA8): 84 ± 4.8%
cell viability (3LL): 89.9 ± 17%

UCACCUUACAUGUAAACCAAA
cell viability (H460): 55.2 ± 4.8%
cell viability (M565): 98.9 ± 7.2%
cell viability (HeyA8): 74.6 ± 6.1%
cell viability (3LL): 104 ± 14%

UCACGAAACAUGUAAACCAAA
cell viability (H460): 41.6 ± 9.5%
cell viability (M565): 78.3 ± 14%
cell viability (HeyA8): 89.1 ± 5.1%
cell viability (3LL): 102 ± 9.2%

Reference: the supplement of paper PMC6206098
